In publication PMC8198181, “Evaluation of Substituted N-Phenylpiperazine Analogs as D3 vs. D2 Dopamine Receptor Subtype Selective Ligands” (Molecules, 2021):

Target: D2 dopamine receptor (Homo sapiens, UniProt P14416)
Assay: biochemical

Chain of UniProt P14416 (P14416 whole entry): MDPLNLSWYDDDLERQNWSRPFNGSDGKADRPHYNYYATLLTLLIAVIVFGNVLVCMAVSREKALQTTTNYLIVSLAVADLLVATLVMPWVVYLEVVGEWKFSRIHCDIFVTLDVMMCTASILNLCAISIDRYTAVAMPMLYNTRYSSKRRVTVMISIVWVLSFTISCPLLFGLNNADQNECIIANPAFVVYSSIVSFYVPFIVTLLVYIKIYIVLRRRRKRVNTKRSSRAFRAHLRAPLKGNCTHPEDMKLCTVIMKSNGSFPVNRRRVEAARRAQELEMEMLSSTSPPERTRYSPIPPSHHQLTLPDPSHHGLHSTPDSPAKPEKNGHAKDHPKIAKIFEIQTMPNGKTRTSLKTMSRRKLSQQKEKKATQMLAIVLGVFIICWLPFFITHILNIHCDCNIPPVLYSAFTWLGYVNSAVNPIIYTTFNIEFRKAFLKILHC

Structure (SMILES)	Ki
CCCCN1CCN(c2ccccc2F)CC1 [Compound 3a]	0.384 ± 0.0396 µM
CCCCN1CCN(c2cccc(F)c2)CC1 [Compound 3b]	2.52 ± 0.252 µM
CCCCN1CCN(c2ccc(F)cc2)CC1 [Compound 3c]	3.09 ± 0.269 µM
CCCCN1CCN(c2cc(C#N)ccc2F)CC1 [Compound 3d]	5.43 ± 1.06 µM
CCCCN1CCN(c2ccc(C(F)(F)F)cc2F)CC1 [Compound 3e]	7.52 ± 0.466 µM
CCCCN1CCN(c2ccc(F)cc2OCCF)CC1 [Compound 3f]	0.349 ± 0.0211 µM
O=C(NCCCCN1CCN(c2ccccc2F)CC1)c1ccc(-c2ccsc2)cc1 [Compound 6a]	0.648 ± 0.1 µM
O=C(NCCCCN1CCN(c2cccc(F)c2)CC1)c1ccc(-c2ccsc2)cc1 [Compound 6b]	2.33 ± 0.485 µM
O=C(NCCCCN1CCN(c2ccc(F)cc2)CC1)c1ccc(-c2ccsc2)cc1 [Compound 6c]	7.2 ± 0.215 µM
N#Cc1ccc(F)c(N2CCN(CCCCNC(=O)c3ccc(-c4ccsc4)cc3)CC2)c1 [Compound 6d]	4.5 ± 0.565 µM
O=C(NCCCCN1CCN(c2ccc(C(F)(F)F)cc2F)CC1)c1ccc(-c2ccsc2)cc1 [Compound 6e]	> 75 µM
O=C(NCCCCN1CCN(c2ccc(F)cc2OCCF)CC1)c1ccc(-c2ccsc2)cc1 [Compound 6f]	0.411 ± 0.0273 µM
O=C(NCCCCN1CCN(c2ccccc2F)CC1)c1ccc(-c2cscn2)cc1 [Compound 7a]	0.478 ± 0.071 µM
O=C(NCCCCN1CCN(c2cccc(F)c2)CC1)c1ccc(-c2cscn2)cc1 [Compound 7b]	3.95 ± 0.146 µM
O=C(NCCCCN1CCN(c2ccc(F)cc2)CC1)c1ccc(-c2cscn2)cc1 [Compound 7c]	4.01 ± 0.694 µM
N#Cc1ccc(F)c(N2CCN(CCCCNC(=O)c3ccc(-c4cscn4)cc3)CC2)c1 [Compound 7d]	7.72 ± 1.5 µM
O=C(NCCCCN1CCN(c2ccc(C(F)(F)F)cc2F)CC1)c1ccc(-c2cscn2)cc1 [Compound 7e]	> 40 µM
O=C(NCCCCN1CCN(c2ccc(F)cc2OCCF)CC1)c1ccc(-c2cscn2)cc1 [Compound 7f]	0.349 ± 0.0503 µM
